Structures can show the parent of a compound that is named as a salt. Where two headings read alike, the source gives them in different places. Entries with a single value are a further part of the results.
| melting point (glue-liquid transition) [°C] | melting point (powder-glue transition) [°C] | Structure (SMILES) |
| --- | --- | --- |
| 278 to 282 | 239 to 243 | C/C(=N\N=C(N)N)c1cccc(NC(=O)c2ccc(Nc3ccnc4ccc(N(C)C)cc34)cc2)c1 (as salt: hydrochloride) [Cpd. JJ1, (E)-N-[3-(1-{(diaminomethylene)hydrazono}ethyl)phenyl]-4-[6-(dimethylamino)quinolin-4-ylamino]benzamide dihydrochloride] |
| 264 to 268 | 240 to 244 | C/C(=N\N=C(N)N)c1cccc(NC(=O)c2ccc(Nc3ccnc4ccccc34)cc2)c1 (as salt: hydrochloride) [Cpd. JJ2, (E)-N-[3-(1-{(Diaminomethylene)hydrazono}ethyl)phenyl]-4-(quinolin-4-ylamino)benzamide dihydrochloride] |

Source: patent US7939546B2, “Quinoline derivatives for modulating DNA methylation” (SuperGen, Inc., priority 2007, dated 2011)
